This is one part of the list.

This is an account of results in the supplement of paper PMC3724861.

The subject of the assay is T1, Caupolican (Caup) homeodomain DNA-binding domain.
T1 sequence: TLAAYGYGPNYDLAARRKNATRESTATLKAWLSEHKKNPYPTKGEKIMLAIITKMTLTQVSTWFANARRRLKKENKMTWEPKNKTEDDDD
As to the kind of experiment: PBM E-score (8-mer, recovered from the published 9-mer minima) (E-score (dimensionless, -0.5 to 0.5)); Drosophila protein; higher = stronger relative binding preference, active = 0.31 or more. In a few lines:
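Caup's homeodomain DNA-binding domain (residues 214-303) was produced by in vitro transcription and translation and applied at 100 nM to custom-designed protein binding microarrays. Each value is an enrichment score giving relative binding preference for a short DNA word; higher means stronger. Published 9-mer scores were the minimum of their two constituent 8-mer scores, and the 8-mer values were recovered from those minima. A cutoff of 0.31 marks candidate binding sequences.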
Regarding CTAGGATC, the “PBM E-score” value is inactive: -0.0155. For ATAGGGTA, the “PBM E-score” value was inactive: 0.0384. The result for GAGTCCTA reads inactive: -0.0609. The result for CTTGCGAC reads inactive: -0.178; that for GCAGAGCA, inactive: -0.0161; that for AAGGTCAA, inactive: 0.00315. For the sequence AACTCCAC, the “PBM E-score” value was inactive: 0.0187. To AGAGACAG belongs inactive: -0.00849; to AGATTAGC, inactive: -0.0125.

Consider GTGCAGAA, for which the “PBM E-score” value is inactive: -0.0572. The result for ACGCTTAT reads inactive: 0.0137. With GACCAGGC, the “PBM E-score” value is inactive: -0.176.

Turning to GTTGTCCA, the “PBM E-score” value was active: ≥ 0.336.

With GTTCGTAA, the “PBM E-score” value is inactive: 0.0956.

For the sequence AAATCCAG, the “PBM E-score” value was inactive: 0.0354. To AAGTACTC belongs inactive: 0.0162; to CAATAGTA, inactive: 0.0364; to AGAATGAT, inactive: 0.1. CTTTAGTA: the “PBM E-score” value is inactive: 0.0758.

Regarding AGCTGTGA, the “PBM E-score” value is inactive: 0.0157. To TCCGCCCA belongs inactive: -0.142; to GGTGGCTA, inactive: -0.133; to AAATCCCA, inactive: -0.00704. With CCAACCGC, the “PBM E-score” value is inactive: -0.144. To GAATGGAC belongs inactive: 0.0265. In the case of CCGTATTA, the “PBM E-score” value is inactive: 0.0301. In the case of AAATATGC, the “PBM E-score” value is inactive: 0.00511. The result for TAGGTATA reads inactive: 0.0723. As to TCCCTTAA, the “PBM E-score” value was inactive: -0.00465. On to GTTGCAGA, for which the “PBM E-score” value is inactive: 0.0159. The result for AATTTAGA reads inactive: 0.0312. The result for GATTATTA reads inactive: 0.16.

For the sequence TAATACAA, the “PBM E-score” value is inactive: 0.278.

Regarding CCGGGTCC, the “PBM E-score” value is inactive: -0.185. To AAGATTAT belongs inactive: 0.0707. To GACGCATC belongs inactive: -0.0449; to GTCACTTA, inactive: 0.105; to TTAATTAA, inactive: 0.128. The result for ATGGGCCG reads at least -0.14; that for ACGACTCA, inactive: 0.0184. For the sequence CAATCGCA, the “PBM E-score” value was inactive: 0.0691. The result for CGCCCACG reads inactive: -0.219; that for CCGCTGTA, inactive: 0.089; that for GGGAAGTA, inactive: 0.031. The result for GGTCCTAA reads inactive: -0.0162.

Take TCCCCGAA: the “PBM E-score” value is inactive: -0.216. As to CATAGGCA, the “PBM E-score” value is inactive: -0.111. The result for CGCCTAGA reads inactive: -0.178. Regarding ATGGTATC, the “PBM E-score” value is inactive: 0.109. To GTTATTGA belongs inactive: 0.154; to CAATGGGA, inactive: -0.0502; to ACGATTCC, inactive: 0.0592. To ATGGTGTC belongs inactive: 0.142; to AGTATCTA, inactive: 0.166; to AGTGTGCG, inactive: -0.0759. The result for CCTTAGGC reads inactive: -0.129; that for GGATCTGA, inactive: 0.0275. As to ACCCTGAC, the “PBM E-score” value was inactive: -0.0939. The result for ATTCGTCA reads inactive: 0.0852; that for GCCCCAAC, inactive: -0.0515; that for AGGTCATC, inactive: -0.0765.
